The text below walks through data of ChEMBL document CHEMBL4888484, “Replenishing the malaria drug discovery pipeline: Screening and hit evaluation of the MMV Hit Generation Library 1 (HGL1) against asexual blood stage Plasmodium falciparum ,using a nano luciferase reporter read-out” (2022).

Screen size: about 150,000 compounds; about 540 (0.36%) showed an effect of 50% or more. The list shows a part of the results.

In the assay the test system is Plasmodium falciparum. As to the kind of experiment: Primary screen in NF54 nanoGlo assay, in single point, at 2uM, 72h; a lower Z score goes with more inhibition. In kind it is functional, Erythrocyte. Conditions: timepoint 72 hour.
For the compound `COc1ccc2c(c1)CN(C(=O)C1(OC)CS(=O)(=O)C1)CCO2`, the % Inhibition (as a rule, the relative decrease from the control value, in per cent) is recorded as -4% and the Z score came to 0.72.
On the same counts, the results for `CCS(=O)(=O)Oc1cccc(CN(CC(C)C)C(=O)CC(C)C)c1` are 0% and -0.07.
`Cc1ncccc1C(=O)N1CCC2(CCc3nn(Cc4ccccc4)c(=O)n3CC2)CC1`: the “% Inhibition” value is 10% and the Z score is recorded as -1.15.
For `CC(C)CC(=O)Nc1ccc(-n2nc(OCc3ccc(F)cc3)nc2-c2ccco2)cc1`, the “% Inhibition” value amounted to 8% and the Z score was -0.71.
On the same counts, the results for `N#CC1(C(=O)N2CCCO2)CCCCC1` are 3% and -0.38.
On the same counts, the results for `O=C(N[C@@H]1[C@H]2CCO[C@H]2[C@H]1Cc1ccccc1)c1cccc(=O)[nH]1` are -4% and 0.6.
On the same counts, the results for `O=C1CCN(C(=O)c2ccc(C(=O)Nc3ccccc3)cc2)CCN1` are -7% and 1.23.
As to `O=c1c2ccccc2ncn1C[C@H]1CC[C@H](C(=O)NC2CCCCCCC2)CC1`, the “% Inhibition” value is reported as -12% and the Z score was 1.48.
On the same counts, the results for `CC(C)c1scnc1-c1nc(-c2cccc(N3CCN(C)CC3)n2)no1` are 3% and -0.32.
On the same counts, the results for `COCC1(CNS(=O)(=O)c2cc(C)cs2)CCCC1` are -10% and 1.26.
On the same counts, the results for `Cc1noc(C)c1C(=O)N1CCC[C@H]1c1nc(-c2ccccc2)no1` are 5% and -0.71.
Take `CC(C)Cc1noc(CN(C)C(=O)CCn2cncn2)n1`: the “% Inhibition” value was determined as 6% and the Z score is given as -1.13.
On the same counts, the results for `O=C(Nc1cccc(C(F)(F)F)c1)N1C[C@H]2CC[C@@H](C1)NC2` are -10% and 1.22.
Regarding `O=C(Cn1cnc2ccccc21)N1CCN(c2cc(N3CCOCC3)ncn2)CC1`, the “% Inhibition” value is listed as -16% and the Z score was found to be 1.37.
On to `CN(CC(=O)N[C@H]1CC[C@H](Oc2ncccn2)CC1)S(C)(=O)=O`, for which the “% Inhibition” value was -13% and the Z score stood at 1.51.
On the same counts, the results for `CCOCCN(C)C(=O)NCc1cc(F)cc(Br)c1` are 2% and -0.19.
On the same counts, the results for `c1ccc(N2CCOCC2)c(CCNc2nccn3cnnc23)c1` are -9% and 1.62.
On the same counts, the results for `CCc1nc(N(CCC(=O)Nc2cccc(C(F)(F)F)c2)CC(C)C)c2ccc(Cl)cc2n1` are -8% and 0.75.
Consider `COCCN(CC(N)=O)C(=O)c1ccc(Cl)cc1F`, for which the “% Inhibition” value was -10% and the Z score was found to be 1.31.
On the same counts, the results for `Cc1csc(NC(=O)C(=O)c2ccc3c(c2)CCC3)n1` are -11% and 2.38.
On the same counts, the results for `COCCCn1c(C)cc(=O)c(C(=O)O)c1CC1CCCC1` are 18% and -2.28.
On the same counts, the results for `CCN(C)S(=O)(=O)Nc1cccc(-c2nnsc2Cl)c1` are 11% and -1.56.
On to `CCC[C@H](C)N1CC2(CCN(C(=O)c3cccnc3OC)CC2)OC1=O`, for which the “% Inhibition” value is 4% and the Z score is -0.76.
On the same counts, the results for `CC(=O)N1CCC[C@H](c2noc(-c3onc4c3CCCC4)n2)C1` are -1% and 0.14.
On the same counts, the results for `CO[C@@H](C)CS(=O)(=O)Nc1cnc(C(F)(F)F)nc1` are -3% and 0.4.
On the same counts, the results for `CN(C)c1ccccc1CN(C)c1cccc(C(=O)O)n1` are -11% and 2.16.
On to `CC(CCNC(=O)C1COCCO1)c1cccc(C(F)(F)F)c1` (centres undefined), for which the “% Inhibition” value is recorded as -1% and the Z score is given as 0.11.
For `O=C(NC[C@H]1O[C@@H](CO)[C@@H](O)[C@H]1N1CCCCC1)c1ccccc1`, the “% Inhibition” value was determined as 28% and the Z score was -3.14.
On the same counts, the results for `COC[C@H](NC(=O)c1cn2c(n1)CCC2)c1cccc(Cl)c1` are -2% and 0.3.
Turning to `COCC[C@H]1CN(Cc2ccc(Cl)o2)CCO1`, the “% Inhibition” value amounted to 5% and the Z score is recorded as -0.71.
On the same counts, the results for `CCN=C(NCc1noc(C)n1)N(C)Cc1sccc1C` are -16% and 1.54.
Consider `O=C(Cc1ccccc1)N1CCN(c2nc(C3CCC3)nc3ccc(Cl)cc23)CC1`, for which the “% Inhibition” value is reported as -12% and the Z score was determined as 1.39.
On the same counts, the results for `CC(C)c1ccc(-n2nc(-c3ccccc3)nc2CS(C)(=O)=O)cc1` are -21% and 3.09.
Consider `Cc1ccc2[nH]c(N3CCC(C(=O)NC4CCCC(C)C4C)CC3)nc2c1` (centres undefined), for which the “% Inhibition” value is -7% and the Z score is reported as 0.89.
On the same counts, the results for `O=C(CN1CCN(c2nccc3occc23)CC1)Nc1nncs1` are -9% and 1.72.
On the same counts, the results for `CCC(CC)N1CCN(C(=O)[C@@H]2OCCN(C)[C@H]2c2ccccc2)CC1` are -2% and 0.31.
On the same counts, the results for `Cc1nnc(-c2ccc3ccn(CC(=O)N4CCN(c5ccccc5)CC4)c3c2)o1` are -7% and 0.82.
Take `CCc1cccc2c(CCNC(=O)NCCc3nc(C)no3)c[nH]c12`: the “% Inhibition” value is reported as -8% and the Z score worked out at 1.07.
Take `Cn1cc(CN[C@H]2[C@H](O)[C@H](O)C[C@@H]2c2ccccc2)cn1`: the “% Inhibition” value turned out to be 35% and the Z score is given as -3.96.
Turning to `Cc1onc(C(=O)NCc2ccc3c(c2)OCO3)c1CN1CCOCC1`, the “% Inhibition” value is on record as -19% and the Z score is 1.91.
On the same counts, the results for `O=C1c2ccccc2N[C@]2(C(=O)Nc3ccccc32)N1CCc1ccccc1` are -6% and 1.12.
On the same counts, the results for `O=C(NCc1cccc(C(F)(F)F)c1)C1CCC(c2ccc(F)cc2)N(C(=O)c2ccccc2)C1` (centres undefined) are -16% and 1.54.
